In assay [1] the target is T1, Immunity Related GTPase M (IRGM), endogenous (human (endogenous in THP-1)) (UniProt A1A4Y4).
T1 sequence: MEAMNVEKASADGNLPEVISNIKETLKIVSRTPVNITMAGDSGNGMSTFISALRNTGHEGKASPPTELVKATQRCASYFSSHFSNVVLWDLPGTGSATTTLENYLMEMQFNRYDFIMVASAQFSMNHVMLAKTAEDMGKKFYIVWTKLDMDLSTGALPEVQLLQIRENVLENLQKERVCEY
Put plainly: co-IP; immunoprecipitation of endogenous IRGM and endogenous sensor proteins in THP-1 cell lysates; NP-40 lysis buffer, protein G dynabeads, 4°C.

In assay [2] the target is T2, GFP-IRGM (human) (UniProt A1A4Y4).
T2 sequence: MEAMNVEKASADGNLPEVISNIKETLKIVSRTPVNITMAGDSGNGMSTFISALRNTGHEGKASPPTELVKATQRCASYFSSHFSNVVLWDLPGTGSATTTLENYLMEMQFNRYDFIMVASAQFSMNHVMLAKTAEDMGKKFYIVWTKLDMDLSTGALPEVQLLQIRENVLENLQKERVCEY
Put plainly: co-IP; GFP-IRGM and Flag-tagged proteins overexpressed in HEK293T, cell lysates; NP-40 lysis buffer, protein G dynabeads, 4°C; reverse co-IPs too; for cGAS, RIG-I and TLR3 also in control siRNA or p62 siRNA transfected cells.

Results are given in words; binding and its absence hold for the method and conditions named. In cells and extracts the contact can be indirect. Some binding calls cover weakened binding; strength is not graded here. For some of these results: Where a sequence is shown, tags or fusion partners need not be part of it.

B1: TLR7, endogenous (receptor, UniProt Q9NYK1 27-1049)
chain: ARWFPKTLPCDVTLDVPKNHVIVDCTDKHLTEIPGGIPTNTTNLTLTINHIPDISPASFHRLDHLVEIDFRCNCVPIPLGSKNNMCIKRLQIKPRSFSGLTYLKSLYLDGNQLLEIPQGLPPSLQLLSLEANNIFSIRKENLTELANIEILYLGQNCYYRNPCYVSYSIEKDAFLNLTKLKVLSLKDNNVTAVPTVLPSTLTELYLYNNMIAKIQEDDFNNLNQLQILDLSGNCPRCYNAPFPCAPCKNNSPLQIPVNAFDALTELKVLRLHSNSLQHVPPRWFKNINKLQELDLSQNFLAKEIGDAKFLHFLPSLIQLDLSFNFELQVYRASMNLSQAFSSLKSLKILRIRGYVFKELKSFNLSPLHNLQNLEVLDLGTNFIKIANLSMFKQFKRLKVIDLSVNKISPSGDSSEVGFCSNARTSVESYEPQVLEQLHYFRYDKYARSCRFKNKEASFMSVNESCYKYGQTLDLSKNSIFFVKSSDFQHLSFLKCLNLSGNLISQTLNGSEFQPLAELRYLDFSNNRLDLLHSTAFEELHKLEVLDISSNSHYFQSEGITHMLNFTKNLKVLQKLMMNDNDISSSTSRTMESESLRTLEFRGNHLDVLWREGDNRYLQLFKNLLKLEELDISKNSLSFLPSGVFDGMPPNLKNLSLAKNGLKSFSWKKLQCLKNLETLDLSHNQLTTVPERLSNCSRSLKNLILKNNQIRSLTKYFLQDAFQLRYLDLSSNKIQMIQKTSFPENVLNNLKMLLLHHNRFLCTCDAVWFVWWVNHTEVTIPYLATDVTCVGPGAHKGQSVISLDLYTCELDLTNLILFSLSISVSLFLMVMMTASHLYFWDVWYIYHFCKAKIKGYQRLISPDCCYDAFIVYDTKDPAVTEWVLAELVAKLEDPREKHFNLCLEERDWLPGQPVLENLSQSIQLSKKTVFVMTDKYAKTENFKIAFYLSHQRLMDEKVDVIILIFLEKPFQKSKFLQLRKRLCGSSVLEWPTNPQAHPYFWQCLKNALATDNHVAYSQVFKETV
B1: in assay [1], the binding result is recorded as “no binding”.

B2: RIG-I, endogenous (protein, UniProt O95786 1-925)
chain: MTTEQRRSLQAFQDYIRKTLDPTYILSYMAPWFREEEVQYIQAEKNNKGPMEAATLFLKFLLELQEEGWFRGFLDALDHAGYSGLYEAIESWDFKKIEKLEEYRLLLKRLQPEFKTRIIPTDIISDLSECLINQECEEILQICSTKGMMAGAEKLVECLLRSDKENWPKTLKLALEKERNKFSELWIVEKGIKDVETEDLEDKMETSDIQIFYQEDPECQNLSENSCPPSEVSDTNLYSPFKPRNYQLELALPAMKGKNTIICAPTGCGKTFVSLLICEHHLKKFPQGQKGKVVFFANQIPVYEQQKSVFSKYFERHGYRVTGISGATAENVPVEQIVENNDIIILTPQILVNNLKKGTIPSLSIFTLMIFDECHNTSKQHPYNMIMFNYLDQKLGGSSGPLPQVIGLTASVGVGDAKNTDEALDYICKLCASLDASVIATVKHNLEELEQVVYKPQKFFRKVESRISDKFKYIIAQLMRDTESLAKRICKDLENLSQIQNREFGTQKYEQWIVTVQKACMVFQMPDKDEESRICKALFLYTSHLRKYNDALIISEHARMKDALDYLKDFFSNVRAAGFDEIEQDLTQRFEEKLQELESVSRDPSNENPKLEDLCFILQEEYHLNPETITILFVKTRALVDALKNWIEGNPKLSFLKPGILTGRGKTNQNTGMTLPAQKCILDAFKASGDHNILIATSVADEGIDIAQCNLVILYEYVGNVIKMIQTRGRGRARGSKCFLLTSNAGVIEKEQINMYKEKMMNDSILRLQTWDEAVFREKILHIQTHEKFIRDSQEKPKPVPDKENKKLLCRKCKALACYTADVRVIEECHYTVLGDAFKECFVSRPHPKPKQFSSFEKRAKIFCARQNCSHDWGIHVKYKTFEIPVIKIESFVVEDIATGVQTLYSKWKDFHFEKIPFDPAEMSK
On to B2, for which the binding entry in assay [1] was “binds”.

B3: Flag-RIG-I (protein, UniProt O95786 1-925)
chain: MTTEQRRSLQAFQDYIRKTLDPTYILSYMAPWFREEEVQYIQAEKNNKGPMEAATLFLKFLLELQEEGWFRGFLDALDHAGYSGLYEAIESWDFKKIEKLEEYRLLLKRLQPEFKTRIIPTDIISDLSECLINQECEEILQICSTKGMMAGAEKLVECLLRSDKENWPKTLKLALEKERNKFSELWIVEKGIKDVETEDLEDKMETSDIQIFYQEDPECQNLSENSCPPSEVSDTNLYSPFKPRNYQLELALPAMKGKNTIICAPTGCGKTFVSLLICEHHLKKFPQGQKGKVVFFANQIPVYEQQKSVFSKYFERHGYRVTGISGATAENVPVEQIVENNDIIILTPQILVNNLKKGTIPSLSIFTLMIFDECHNTSKQHPYNMIMFNYLDQKLGGSSGPLPQVIGLTASVGVGDAKNTDEALDYICKLCASLDASVIATVKHNLEELEQVVYKPQKFFRKVESRISDKFKYIIAQLMRDTESLAKRICKDLENLSQIQNREFGTQKYEQWIVTVQKACMVFQMPDKDEESRICKALFLYTSHLRKYNDALIISEHARMKDALDYLKDFFSNVRAAGFDEIEQDLTQRFEEKLQELESVSRDPSNENPKLEDLCFILQEEYHLNPETITILFVKTRALVDALKNWIEGNPKLSFLKPGILTGRGKTNQNTGMTLPAQKCILDAFKASGDHNILIATSVADEGIDIAQCNLVILYEYVGNVIKMIQTRGRGRARGSKCFLLTSNAGVIEKEQINMYKEKMMNDSILRLQTWDEAVFREKILHIQTHEKFIRDSQEKPKPVPDKENKKLLCRKCKALACYTADVRVIEECHYTVLGDAFKECFVSRPHPKPKQFSSFEKRAKIFCARQNCSHDWGIHVKYKTFEIPVIKIESFVVEDIATGVQTLYSKWKDFHFEKIPFDPAEMSK
With B3, in assay [2], the binding result was “binds”.

B4: AIM2, endogenous (protein, UniProt O14862 1-343)
chain: MESKYKEILLLTGLDNITDEELDRFKFFLSDEFNIATGKLHTANRIQVATLMIQNAGAVSAVMKTIRIFQKLNYMLLAKRLQEEKEKVDKQYKSVTKPKPLSQAEMSPAASAAIRNDVAKQRAAPKVSPHVKPEQKQMVAQQESIREGFQKRCLPVMVLKAKKPFTFETQEGKQEMFHATVATEKEFFFVKVFNTLLKDKFIPKRIIIIARYYRHSGFLEVNSASRVLDAESDQKVNVPLNIIRKAGETPKINTLQTQPLGTIVNGLFVVQKVTEKKKNILFDLSDNTGKMEVLGVRNEDTMKCKEGDKVRLTFFTLSKNGEKLQLTSGVHSTIKVIKAKKKT
Take B4: in assay [1], the binding entry was “no binding”.

B5: AIM2, overexpressed in HEK293T (protein, UniProt O14862 1-343)
chain: MESKYKEILLLTGLDNITDEELDRFKFFLSDEFNIATGKLHTANRIQVATLMIQNAGAVSAVMKTIRIFQKLNYMLLAKRLQEEKEKVDKQYKSVTKPKPLSQAEMSPAASAAIRNDVAKQRAAPKVSPHVKPEQKQMVAQQESIREGFQKRCLPVMVLKAKKPFTFETQEGKQEMFHATVATEKEFFFVKVFNTLLKDKFIPKRIIIIARYYRHSGFLEVNSASRVLDAESDQKVNVPLNIIRKAGETPKINTLQTQPLGTIVNGLFVVQKVTEKKKNILFDLSDNTGKMEVLGVRNEDTMKCKEGDKVRLTFFTLSKNGEKLQLTSGVHSTIKVIKAKKKT
On to B5, for which the binding result in assay [2] is listed as “no binding”.

B6: MDA5, endogenous (protein, UniProt Q9BYX4 1-1025)
chain: MSNGYSTDENFRYLISCFRARVKMYIQVEPVLDYLTFLPAEVKEQIQRTVATSGNMQAVELLLSTLEKGVWHLGWTREFVEALRRTGSPLAARYMNPELTDLPSPSFENAHDEYLQLLNLLQPTLVDKLLVRDVLDKCMEEELLTIEDRNRIAAAENNGNESGVRELLKRIVQKENWFSAFLNVLRQTGNNELVQELTGSDCSESNAEIENLSQVDGPQVEEQLLSTTVQPNLEKEVWGMENNSSESSFADSSVVSESDTSLAEGSVSCLDESLGHNSNMGSDSGTMGSDSDEENVAARASPEPELQLRPYQMEVAQPALEGKNIIICLPTGSGKTRVAVYIAKDHLDKKKKASEPGKVIVLVNKVLLVEQLFRKEFQPFLKKWYRVIGLSGDTQLKISFPEVVKSCDIIISTAQILENSLLNLENGEDAGVQLSDFSLIIIDECHHTNKEAVYNNIMRHYLMQKLKNNRLKKENKPVIPLPQILGLTASPGVGGATKQAKAEEHILKLCANLDAFTIKTVKENLDQLKNQIQEPCKKFAIADATREDPFKEKLLEIMTRIQTYCQMSPMSDFGTQPYEQWAIQMEKKAAKEGNRKERVCAEHLRKYNEALQINDTIRMIDAYTHLETFYNEEKDKKFAVIEDDSDEGGDDEYCDGDEDEDDLKKPLKLDETDRFLMTLFFENNKMLKRLAENPEYENEKLTKLRNTIMEQYTRTEESARGIIFTKTRQSAYALSQWITENEKFAEVGVKAHHLIGAGHSSEFKPMTQNEQKEVISKFRTGKINLLIATTVAEEGLDIKECNIVIRYGLVTNEIAMVQARGRARADESTYVLVAHSGSGVIEHETVNDFREKMMYKAIHCVQNMKPEEYAHKILELQMQSIMEKKMKTKRNIAKHYKNNPSLITFLCKNCSVLACSGEDIHVIEKMHHVNMTPEFKELYIVRENKALQKKCADYQINGEIICKCGQAWGTMMVHKGLDLPCLKIRNFVVVFKNNSTKKQYKKWVELPITFPNLDYSECCLFSDED
B6: in assay [1], the binding result is reported as “no binding”.

B7: Flag-NDP52 (protein, UniProt Q13137 1-446)
chain: MEETIKDPPTSAVLLDHCHFSQVIFNSVEKFYIPGGDVTCHYTFTQHFIPRRKDWIGIFRVGWKTTREYYTFMWVTLPIDLNNKSAKQQEVQFKAYYLPKDDEYYQFCYVDEDGVVRGASIPFQFRPENEEDILVVTTQGEVEEIEQHNKELCKENQELKDSCISLQKQNSDMQAELQKKQEELETLQSINKKLELKVKEQKDYWETELLQLKEQNQKMSSENEKMGIRVDQLQAQLSTQEKEMEKLVQGDQDKTEQLEQLKKENDHLFLSLTEQRKDQKKLEQTVEQMKQNETTAMKKQQELMDENFDLSKRLSENEIICNALQRQKERLEGENDLLKRENSRLLSYMGLDFNSLPYQVPTSDEGGARQNPGLAYGNPYSGIQESSSPSPLSIKKCPICKADDICDHTLEQQQMQPLCFNCPICDKIFPATEKQIFEDHVFCHSL
B7: in assay [2], the binding result is listed as “no binding”.
